Assay results as given in PubChem BioAssay AID1347417 (National Center for Advancing Translational Sciences (NCATS), 2020).
About 5,300 (4.4%) of roughly 120,000 compounds were called active. Inconclusive results, whose numbers are uncertain, are shown with a selection of clear calls. The call rests on the fitted dose curve; in most records, active means well fitted inhibition curve with a large enough effect; inconclusive means small, poorly fitted or top-dose-only effect; inactive means no such curve, though single readings can be large or run the other way. Potencies beside an inconclusive call are fits to weak or partial responses and may not hold up.

Test: qHTS Primary assay for Inhibitors of Plasmodium falciparum Dd2 growth in vitro; further: nearly all actives have a fitted effect of over 65% in size;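 on activity, negative = inhibition: plate controls were DMSO vehicle for no effect and reference drug for full effect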
Conditions: P. falciparum Dd2 growth, SYBR Green, 72 h; activity, negative = inhibition: at 28.9 µM (top of the series) unless noted; series mostly up to 28.9 µM
How it was run: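 Readout: SYBR Green fluorescence, 485 nm excitation, 535 nm emission, after ~16 h lysis at 37C. Before that, Dd2-infected red cells (2.5% hematocrit) grew 72 h with compound, 29 uM top final concentration.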
Potency means the concentration at half of the fitted maximal effect; tags describe the fitted curve by direction and shape.

Which Potency does the source give for `O=C(Cc1ccc(F)cc1)N1CCC2(CC1)NCc1ccccc1-n1ccnc12` here?
Its Potency is inconclusive: 0.891 µM [inhibitor, single point].

For `COc1ccc(CC(=O)N2CCc3cc(OC)c(OC)cc3C2COc2cc(C)cc(C)c2)cc1OC` (stereo not drawn), which Potency is on record?
Its Potency is active: 3.98 µM.

For `CN1C[C@H](C(=O)NCCOc2ccccc2)C[C@H]1c1cccc(C(F)(F)F)c1`, which Potency is on record?
Its Potency is inconclusive: 1.58 µM [inhibitor, partial curve, poor fit].

Which Potency does the source give for `CCS(=O)(=O)Nc1ccc(C2(C(=O)NC(C)c3ccccc3)CCCCC2)cc1` (stereo not drawn) here?
Its Potency is inconclusive: 14.1 µM [inhibitor, partial curve, poor fit].

With `CCOCC1(C)COc2ccc(C(=O)Nc3ccc(F)c(Cl)c3)cc2N1` (stereo not drawn) as the compound, how does the Potency read?
The Potency was inconclusive: 12.6 µM [inhibitor, partial curve, poor fit].

For `Cc1nc(-c2ccco2)cc([C@H]2CN3CC[C@H]2C[C@@H]3CNC(=O)C2CCCCC2)n1`, which Potency is on record?
Its Potency is inconclusive: 8.91 µM [inhibitor, partial curve, poor fit].

Which Potency does the source give for `Cc1ccc(-c2nnc([C@H]3CCN(Cc4ccc(S(C)(=O)=O)cc4)C3)o2)cc1` here?
The Potency was inconclusive: 14.1 µM [inhibitor, single point].

With `Cc1ccc(C2Cn3nnc(C(=O)N4CCN(C(=O)Cc5ccc(Cl)cc5)CC4)c3CO2)cc1` (stereo not drawn) as the compound, how does the Potency read?
The Potency was inconclusive: 17.8 µM [inhibitor, single point].

Which Potency does the source give for `COc1ccc(-c2cc3c(=O)n(CCNC(=O)c4cc(F)cc(F)c4)ccn3n2)cc1` here?
Its Potency is inconclusive: 1.78 µM [inhibitor, partial curve, poor fit].

Which activity, negative = inhibition does the source give for `O=C(NCc1cc(F)cc(F)c1)C1(c2ccc(Cl)cc2)CCOCC1` here?
The activity, negative = inhibition was inconclusive: -37.4% [inhibitor].

With `COc1ccc(C(=O)N[C@@H]2c3ccccc3C3(CCNCC3)[C@H]2OC)cc1C` as the compound, how does the Potency read?
Its Potency is inconclusive: 17.8 µM [inhibitor, single point].

Which Potency does the source give for `Cc1nn(C)c(C)c1CCC(=O)N1CCC(C2CCN(S(C)(=O)=O)CC2)C1` (stereo not drawn) here?
Its Potency is “inactive”.

With `COc1cccc(C(=O)N2CCCC(c3noc(COc4ccccc4)n3)C2)c1` (stereo not drawn) as the compound, how does the Potency read?
The Potency was inconclusive: 17.8 µM [inhibitor, single point].

Which Potency does the source give for `COC[C@@H]1CN(S(=O)(=O)c2cccnc2)C[C@H]1c1ccncc1` here?
Its Potency is “inactive”.

Which Potency does the source give for `O=C(COc1ccc(-c2nnc3n2CCCC3)cc1)Nc1ccc(Br)cc1` here?
The Potency was inconclusive: 3.16 µM [inhibitor, single point].

For `COc1cc(SC)ccc1C(=O)N[C@@H]1C=C(C(=O)N[C@H](CC(C)C)C(N)=O)C[C@@H](O)[C@@H]1O`, which Potency is on record?
The Potency was “inactive”.

For `Cc1c(O)cccc1C(=O)N1CCCC2(C1)C(=O)N(C)c1ccccc12` (stereo not drawn), which Potency is on record?
Its Potency is inconclusive: 4.47 µM [inhibitor, partial curve, poor fit].

Which Potency does the source give for `CN(Cc1cccnc1)c1nc2c(c(=O)[nH]1)CCN(CC1CCCCC1)CC2` here?
Its Potency is inconclusive: 0.316 µM [inhibitor, single point].

For `CCCNC(=O)c1coc(COc2ccc3c(c2)C(c2ccc(C)cc2)N(C(=O)C2CC2)CC3)n1` (stereo not drawn), which Potency is on record?
Its Potency is inconclusive: 1.12 µM [inhibitor, partial curve, poor fit].

For `COCC(=O)N(C1CCOCC1)C1CCN(S(=O)(=O)c2ccc(F)c(F)c2)CC1`, which Potency is on record?
Its Potency is inconclusive: 17.8 µM [inhibitor, single point].

Which Potency does the source give for `COc1cccc(-c2nc(S(=O)(=O)c3ccc(Cl)cc3)c(NCc3ccccc3)o2)c1` here?
The Potency was inconclusive: 15.8 µM [inhibitor, single point].

For `Cn1nnnc1SCCCNCc1cc(Cl)ccc1OCc1ccc(F)cc1`, which Potency is on record?
The Potency was inconclusive: 11.2 µM [inhibitor, partial curve, poor fit].

Which Potency does the source give for `c1ccc(-c2ccccc2Nc2cnc3ccc(N4CCOCC4)nn23)cc1` here?
The Potency was inconclusive: 5.01 µM [inhibitor, single point].

Which Potency does the source give for `CC(C)CCN1CC(Oc2cccc(C(=O)N3CCOCC3)c2)C1` here?
Its Potency is inconclusive: 2.51 µM [inhibitor, single point].

With `Nc1c(C(=O)Nc2ccc(OC(F)(F)F)cc2)sc2nc(-c3ccncc3)ccc12` as the compound, how does the Potency read?
Its Potency is “inactive”.

For `CCOc1ccccc1-c1noc(CSc2nnc(-c3ccccc3)n2-c2ccc(F)cc2)n1`, which Potency is on record?
Its Potency is inconclusive: 11.2 µM [inhibitor, single point].

For `COc1ccc(C(=O)N2CCCC(n3cc(-c4nc(C)no4)nn3)C2)cc1OC` (stereo not drawn), which Potency is on record?
The Potency was “inactive”.

Which Potency does the source give for `O=C1Nc2ccccc2C12CCN(CC1CC1)CC2` here?
Its Potency is inconclusive: 28.2 µM [inhibitor, single point].

With `O=C(NC1CCN(c2cc(-c3ccc(F)cc3)[nH]n2)C1)c1cccc(OC(F)(F)F)c1` (stereo not drawn) as the compound, how does the Potency read?
The Potency was inconclusive: 17.8 µM [inhibitor, single point].

For `COCC1CN(C)CC12CCN(S(=O)(=O)c1cc(F)cc(F)c1)CC2` (stereo not drawn), which Potency is on record?
Its Potency is inconclusive: 1.26 µM [inhibitor, full curve, poor fit].

With `O=C(Cc1cccc(Cl)c1)N1CCC(c2nn(-c3ccc(Cl)cc3)c(=O)[nH]2)CC1` as the compound, how does the Potency read?
The Potency was inconclusive: 7.94 µM [inhibitor, partial curve].

With `COc1ccc([S+](=O)([O-])c2nnn3c2nc(N2CCCCC2)c2ccccc23)cc1` as the compound, how does the Potency read?
The Potency was inconclusive: 15.8 µM [inhibitor, partial curve, poor fit].

With `Cc1c(Cl)cccc1NC(=O)c1ccc2c(c1)CCN2S(=O)(=O)c1ccccc1` as the compound, how does the Potency read?
Its Potency is inconclusive: 17.8 µM [inhibitor, single point].

For `Cc1ccccc1CN1CCN2C(=O)N(C3CCCCC3)C[C@H]2C1`, which Potency is on record?
Its Potency is inconclusive: 31.6 µM [inhibitor, single point].

For `CCN1c2cc(C(=O)NCc3ccc(F)cc3)ccc2C(=O)N2CCCCC21` (stereo not drawn), which Potency is on record?
Its Potency is inconclusive: 3.98 µM [inhibitor, single point].

Which Potency does the source give for `Cc1ccc(C2Cn3nnc(C(=O)N4CCC(C(=O)Nc5ccc(F)c(Cl)c5)CC4)c3CO2)cc1` (stereo not drawn) here?
The Potency was “inactive”.

With `CN(Cc1ccccc1F)C1CCc2ccccc21` (stereo not drawn) as the compound, how does the Potency read?
Its Potency is inconclusive: 1.41 µM [inhibitor, full curve].

For `COc1ccc(C(=O)N[C@@H]2CCC[C@@H]2C(=O)NC(C)C)cc1`, which Potency is on record?
Its Potency is inconclusive: 0.199 µM [inhibitor, full curve, poor fit].

For `Cc1ccc(CCNC(=O)c2ccc3c(Cl)c4c(nc3c2)CCCC4)cc1`, which Potency is on record?
Its Potency is “inactive”.

With `CC(C)c1nc2c(c(-c3ccc(Cl)cc3)n1)CCN(Cc1cccc3ccccc13)CC2` as the compound, how does the Potency read?
Its Potency is active: 11.2 µM.

Which Potency does the source give for `CN(Cc1nc(COc2ccccc2)no1)CC1(N2CCOCC2)CCCCC1` here?
The Potency was active: 8.91 µM.

For `COc1cccc(CCC(=O)N2CCC(Cc3nc(-c4ccccc4)no3)CC2)c1`, which Potency is on record?
The Potency was “inactive”.

Which Potency does the source give for `Cc1ccc(C)c(N2CCN(c3c(CN4CCCC4)c(=O)oc4ccccc34)CC2)c1` here?
Its Potency is inconclusive: 2.82 µM [inhibitor, full curve, poor fit].

Which Potency does the source give for `CCC[C@H]1CN(C(=O)c2cc(F)ccc2OC)C[C@@H]1N` here?
Its Potency is inconclusive: 20 µM [inhibitor, single point].

Which Potency does the source give for `CC1(c2ccccc2)CCCN(c2cncc(C(=O)N3CCOCC3)n2)C1` (stereo not drawn) here?
The Potency was active: 11.2 µM.

With `O=C(c1cccc(Cl)c1)N1CCC2(CC1)N=C(c1cccc(Br)c1)NO2` as the compound, how does the Potency read?
Its Potency is “inactive”.

Which Potency does the source give for `COCCO[C@H]1C(=O)N(C2CCN(Cc3ccccc3C#N)CC2)[C@H]1c1ccncc1` here?
The Potency was inconclusive: 8.91 µM [inhibitor, partial curve, poor fit].

For `CCOc1ccc(-c2cc(OC(=O)c3ccc(OC)cc3)c3c(C)oc(C)c3c(=O)c2)cc1`, which Potency is on record?
The Potency was active: 10 µM.

For `CC1=C[C@@H](CN2CCN(c3ncccn3)CC2)[C@H](C(C)C)C[C@H]1Cc1nnc(COc2ccc(F)cc2)o1`, which Potency is on record?
The Potency was active: 0.891 µM.

For `O=C(c1ccc(CSc2nc3ccncc3n2Cc2ccc(F)cc2)cc1)N1CCCCCC1`, which Potency is on record?
Its Potency is inconclusive: 11.2 µM [inhibitor, partial curve].

Which Potency does the source give for `COCc1c(C(=O)NCCn2c(C)cnc2C2CC2)noc1C` here?
The Potency was “inactive”.

For `CCc1nc2ccc(C(=O)N3CCN(c4cccc(C)c4C)CC3)cc2nc1CC`, which Potency is on record?
The Potency was inconclusive: 17.8 µM [inhibitor, single point].

For `CN1C(=O)[C@@H]2C[C@@H](CN2Cc2ccc(F)c(F)c2)Oc2ccccc21`, which Potency is on record?
Its Potency is inconclusive: 14.1 µM [inhibitor, single point].

For `CCc1cc(=O)n(CC(=O)Nc2ccc(N(C)C)cc2)c(-c2ccccc2)n1`, which Potency is on record?
The Potency was “inactive”.

With `COCC(=O)N[C@H]1CCN2C(=O)c3ccccc3NC(=O)[C@@H]2C1` as the compound, how does the Potency read?
Its Potency is “inactive”.

For `CCCCN1C(=O)c2ccccc2C(C(=O)Nc2nncs2)C12CCCC2` (stereo not drawn), which Potency is on record?
Its Potency is inconclusive: 10 µM [inhibitor, single point].

With `CCn1c2ccccc2c2cc(CN3CCN(Cc4ccccc4Cl)CC3)ccc21` as the compound, how does the Potency read?
The Potency was inconclusive: 17.8 µM [inhibitor, single point].

Which Potency does the source give for `CN1C(=O)[C@H]2CN(Cc3ccc(C#N)cc3)C[C@H]2C1=O` here?
The Potency was inconclusive: 0.224 µM [inhibitor, full curve, poor fit].

For `COc1cccc(NC(=O)CSc2nc3cc(OC)c(OC)cc3c3nc(-c4ccccc4)nn23)c1`, which Potency is on record?
The Potency was inconclusive: 1 µM [inhibitor, partial curve].

Which Potency does the source give for `Cc1ccc(CN2C(=O)NC3(CCCN(C(=O)c4ccc(F)c(Cl)c4)C3)C2=O)cc1` (stereo not drawn) here?
The Potency was active: 7.08 µM.

For `NC(=O)Nc1ccc(S(=O)(=O)NCc2cc3n(n2)CCCNC3)cc1`, which Potency is on record?
Its Potency is inconclusive: 2.82 µM [inhibitor, partial curve, poor fit].

With `CC1(C(=O)NCc2ccccc2)CN(Cc2ccccc2)Cc2ccc(N3CCOCC3)nc21` (stereo not drawn) as the compound, how does the Potency read?
The Potency was inconclusive: 20 µM [inhibitor, partial curve, poor fit].

Which Potency does the source give for `CCOc1ccc(NC(=O)CSc2nc(C)c(C(=O)Nc3ccccc3)c(-c3ccc(Cl)cc3)c2C#N)cc1` here?
The Potency was inconclusive: 11.2 µM [inhibitor, single point].
